About 200 (0.44%) of roughly 45,000 compounds were called active. Not shown: some 7% with an inconclusive outcome. The call rests on the fitted dose curve; in most records, active means well fitted activation curve with a large enough effect; inconclusive means small, poorly fitted or top-dose-only effect; inactive means no such curve, though single readings can be large or run the other way. This is one part of the list.
Assay: qHTS of TDP-43 Inhibitors: NCGC Sytravon Library Screen; further: 0% is about no effect; nearly all actives have a fitted effect of over 55% in size
Conditions: yeast TDP-43 toxicity rescue, BacTiter-Glo growth, 24 h; series mostly up to 46.1 µM; growth rescue (activation): at the top concentration
How it was run: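 TDP-43-expressing yeast, pregrown in raffinose, seeded at OD600 0.02 in galactose medium with compound for 24 hr at 30 deg C. Growth read by BacTiter-Glo luminescence, so rescue of toxicity appears as activation.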

| Compound | growth rescue (activation) |
| --- | --- |
| O=C(CN(Cc1ccccc1Cl)C(=O)CCC(=O)Nc1nccs1)NCC1CCCO1 (stereo not given) | inactive: 17.8% |
| Cc1ccc(C)c(NC(=O)COC(=O)c2cccc3c2C(=O)c2ccccc2C3=O)c1 | inactive: 3.14% |
| O=C(O)C1CCCCC1C(=O)NC(c1ccccc1)c1ccccc1 (stereo not given) | inactive: 3.61% |
| O=[N+]([O-])c1cc(S(=O)(=O)N2CCOCC2)ccc1N1CCCC1 | inactive: 8.1% |
| CN(C)c1cccc(C(=O)NCc2ccccc2Cl)c1 | inactive: -9.82% |
| CC(C)Oc1ccc(CCc2nnc(SC(C)C(=O)O)n2-c2ccccc2)cc1 (stereo not given) | inactive: 2.12% |
| CCOc1ccc(C(C(=O)NCC2CCCO2)N(Cc2cccs2)C(=O)c2snc(C(N)=O)c2N)cc1 (stereo not given) | inactive: -4.11% |
| Cc1ccc(C)c(CN2CCC(CNC(=O)Nc3cccc(Cl)c3C)CC2)c1 | inactive: 0.169% |
| c1cnc(N2CCN(Cc3ccc4c(c3)OCO4)CC2)cn1 | inactive: 4.57% |
| CCN(CC)CCOc1c(C)cccc1Cl | inactive: 13.9% |
| CCCn1c(N)c(C(=O)COC(=O)COc2ccc(Cl)c(C)c2)c(=O)n(C)c1=O | inactive: 10.5% |
| CCOC(=O)c1c(NC(=O)CCN2CCOCC2)sc(C)c1-c1ccccc1 | inactive: -3.01% |
| CCN(CC)CCNC(=S)Nc1ccc2nc(N3CCN(C)CC3)cc(C)c2c1 | inactive: 0.837% |
| COc1ccccc1CCNC(=O)Cc1cccs1 | inactive: 25.4% |
| O=C(N/N=C/c1ccccc1)c1cc(=O)[nH]c2ccccc12 | inactive: -19.8% |
| COc1ccccc1-n1c(-c2ccco2)n[nH]c1=S | inactive: -16.2% |
| O=C(NCCc1ccccc1)C(c1ccc(F)cc1)N(C(=O)c1csnn1)C1CC1 (stereo not given) | inactive: 3.75% |
| CSc1ccccc1NC(=O)CSc1nnc(Cc2ccccc2)o1 | inactive: 28.8% |
| CN(C)S(=O)(=O)c1cccc(NC(=O)c2c[nH]c3ccccc23)c1 | inactive: 24.3% |
| Cc1ncc([N+](=O)[O-])n1CC(=O)Nc1ccc(F)c(Cl)c1 | inactive: -6.93% |
| COc1ccc(S(=O)(=O)NC(C)C(=O)NCc2cccnc2)cc1Cl (stereo not given) | inactive: 18.9% |
| COc1ccc(C(=O)NCC(=O)Nc2ccccc2)cc1OC | inactive: -18.9% |
| Cn1ccc(CC(=O)N2CCC(N3CCC(C(=O)N4CCCC4)CC3)CC2)c1 | inactive: 22.1% |
| CCN(CC)S(=O)(=O)c1ccc(/C=C/C(=O)Nc2ccc(Br)cc2F)cc1 | inactive: 11.7% |
| O=C(COc1cccc(Br)c1)Nc1ccc(Cl)c(S(=O)(=O)N2CCOCC2)c1 | inactive: 26.6% |
| CSc1cccc(NC(=S)N(CCCN2CCCC2)Cc2cccn2Cc2ccc(Cl)cc2)c1 | inactive: -25.9% |
| COc1ccc2c(c1)Cc1sc(NC(=O)c3ccccc3C)nc1-2 | inactive: 23.6% |
| O=C(Nc1nccs1)c1cc(-c2ccncc2)nc2ccccc12 | inactive: -1.98% |
| CC(=O)c1cc2c(cc1NC(=O)Cc1c(C)noc1C)OCO2 | inactive: 16% |
| NS(=O)(=O)c1ccc(CCNC(=O)CSc2ccsc2[N+](=O)[O-])cc1 | inactive: -4.64% |

Reference: PubChem BioAssay AID1347073 (National Center for Advancing Translational Sciences (NCATS), 2019)
